# PubChem BioAssay AID1347073 (National Center for Advancing Translational Sciences (NCATS), 2019)
# Among all 45,000 compounds or so, about 200 (0.44%) were called active. Another 7% or so got no clear call; they are omitted. The call rests on the fitted dose curve; in most records, active means well fitted activation curve with a large enough effect; inconclusive means small, poorly fitted or top-dose-only effect; inactive means no such curve, though single readings can be large or run the other way. Some of the results follow.
# Test: qHTS of TDP-43 Inhibitors: NCGC Sytravon Library Screen; further: 0% is about no effect; nearly all actives have a fitted effect of over 55% in size
# Settings: yeast TDP-43 toxicity rescue, BacTiter-Glo growth, 24 h; series mostly up to 46.1 µM; growth rescue (activation): at the top concentration
# Procedure, shortened: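 TDP-43-expressing yeast, pregrown in raffinose, seeded at OD600 0.02 in galactose medium with compound for 24 hr at 30 deg C. Growth read by BacTiter-Glo luminescence, so rescue of toxicity appears as activation.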
row,Structure (SMILES),growth rescue (activation)
1,COc1cccc(S(=O)(=O)N2CCN(C(=O)c3ccco3)CC2)c1,inactive: 2.1%
2,Cc1nc2cc(-c3ccsc3-n3c(C)ccc3C)[nH]n2c(=O)c1Cl,inactive: 14.1%
3,COC(=O)C/C(O)=C(/N=Nc1cccc(C(F)(F)F)c1)C(=O)OC,inactive: -18.3%
4,CCCCC(=O)Nc1ccc(C(=O)NCCc2ccc(S(N)(=O)=O)cc2)cc1,inactive: 5.36%
5,O=C(NC(Cc1ccccc1)C(=O)O)/C(=C\c1ccc(F)cc1)NC(=O)c1ccco1 (stereo not drawn),inactive: 17.7%
6,COc1ccc(Cn2c(-c3ccc(Cl)cc3)c[n+]3ccccc23)cc1,inactive: 1.28%
7,O=[N+]([O-])c1cc(Cl)ccc1-c1nc(-c2ccccc2)no1,inactive: 25.2%
8,Cc1cc(NC(=O)Cn2nc(C(=O)O)c3ccccc3c2=O)c([N+](=O)[O-])cc1C,inactive: 9.44%
9,CCOc1cc(Br)c(CC(=O)NC2CCCCCC2)cc1OCC,inactive: 22.8%
10,Nc1c(C(=O)NCc2ccc3c(c2)OCO3)nnn1Cc1ccc(Br)cc1,inactive: 14.5%
11,CCOc1ccccc1NC(=O)CN(C)S(=O)(=O)c1ccc2nc(C)sc2c1,inactive: 21.4%
12,NC(=O)CSc1n[nH]c(=O)n1CCc1ccccc1,inactive: 3.58%
13,CCn1cc(Cl)c(C(=O)Nc2ccc(OC)c(OC)c2)n1,inactive: 11.3%
14,Cc1ccccc1Nc1nc(N)nc(COC(=O)c2ccc(O)cc2)n1,inactive: 7.68%
15,CC(=O)Nc1ccc(NC(=O)C(C)OC(=O)CC23CC4CC(CC(Br)(C4)C2)C3)cc1 (stereo not drawn),inactive: 6.21%
16,O=C(Cc1c(F)cccc1Cl)OCC(=O)N1CCc2ccccc21,inactive: 37.4%
17,Cc1c(Nc2cc(N3CCCC(C)C3)c3nonc3c2[N+](=O)[O-])c(=O)n(-c2ccccc2)n1C (stereo not drawn),inactive: 10.6%
18,O=C(Nc1sc2c(c1C(=O)NCc1ccco1)CCCC2)c1cc(=O)c2ccccc2o1,inactive: -1.29%
19,CCN(CC)C(=O)C1CCCN(C(=O)Nc2ccc3nsnc3c2)C1 (stereo not drawn),inactive: -6.35%
20,COC(=O)C1CCN(C(=O)COC(=O)c2cc(S(=O)(=O)N3CCOCC3)ccc2C)CC1,inactive: 20.9%
21,Cn1c(Cc2ccccc2)nnc1SCC(=O)NC1CCCC1,inactive: 12.6%
22,CCOc1ccc(NC(=O)C(Cc2ccccc2)N2C(=O)c3cccc4cccc(c34)C2=O)cc1 (stereo not drawn),inactive: 9.75%
23,COc1ccc(-n2c(SCC(=O)NNC(=O)c3ccc(C)cc3)nnc2-c2ccncc2)cc1,inactive: 6.78%

row,Structure (SMILES),growth rescue (activation)
1,Cc1cc(C)n(CCc2nc(-c3ccc(-c4ccccc4)cc3)cs2)n1,inactive: 17.1%
2,O=C(O)CSCC(=O)NCc1ccc(Cl)cc1,inactive: 1.51%
3,CCN(c1ccccc1)P(=O)(Nc1ccccc1)Nc1ccccc1,inactive: 0.0907%
4,O=C(O)/C=C/C(=O)NCCc1cccc(Cl)c1,inactive: -11.5%
5,CCN(Cc1ccccc1)C(=O)COC(=O)c1cc(=O)[nH]c2ccccc12,inactive: -1.7%
6,O=C(c1ccccn1)N1CCN(S(=O)(=O)c2ccccc2)CC1,inactive: -1.16%
7,CC(C)c1ccc(NC(=O)c2n[nH]c(=O)c3ccccc23)cc1,inactive: 5.94%
8,CCOC(=O)N1CCN(C(=O)c2cc3c(-c4cccc(OC)c4)nn(C)c3s2)CC1,inactive: 35%
9,Cc1cnc([N+](=O)[O-])n1CCOC(=O)c1cccc(F)c1,inactive: 26.1%
10,O=S(=O)(c1ccc2c(c1)CCC2)N1CCNCC1,inactive: -11.2%
11,O=C(Cn1nc(-c2cccs2)ccc1=O)Nc1ccc(Br)cc1,inactive: 0.906%
12,CC1(C)CC(=O)c2cc(C(=O)NC3CCSC3=O)c(=O)n(-c3ccc(Cl)cc3)c2C1 (stereo not drawn),inactive: -22.5%
13,CCN(CC)c1ncnc2c1ncn2[C@H]1CN(Cc2ccc(-c3ccccc3)cc2)C[C@@H](CO)O1,inactive: -1.1%
14,COC(=O)c1ccc(C(=O)OC)c(NC(=O)COC(=O)c2ccc(OC)c(OC)c2OC)c1,inactive: -14.1%
15,Cc1cccc(NC(=O)c2ccc3nccnc3c2)c1C,inactive: 29.8%
16,COc1ccc(OC)c(C(=O)CN2C(=O)C(=O)N(C3CCCC3)C2=O)c1,inactive: 16.2%
17,COc1cccc(-c2cc3nc(NCc4cccnc4)n(C)c(=O)c3s2)c1,inactive: 4.58%
18,CCN(CC)CCCNC(=O)c1ccc(S(=O)(=O)Nc2ccc(C)c(C)c2)cc1,inactive: 19.9%
19,Cn1c(CNc2ccccc2)nc2ccccc21,inactive: -27.3%
20,Cc1ccccc1C(=O)NCCCCc1ccccc1,inactive: 15.6%
21,O=S(=O)(Nc1nc2c(s1)CCCC2)c1ccc2ccccc2c1,inactive: 6.16%
22,Cc1ccc(N2C(=O)c3ccccc3C2C(=O)c2ccc(O)cc2O)cc1 (stereo not drawn),inactive: -3.76%
23,CCOC(=O)c1ccc2c(c1)[n+](CC)c(C)n2-c1ccccc1,inactive: 11.6%

row,Structure (SMILES),growth rescue (activation)
1,CCC(Cc1ccccc1)NC(=O)C1=C(C)C(=O)OC12CCC(C)CC2 (stereo not drawn),inactive: 9.45%
2,CSCCC(NS(=O)(=O)c1ccccc1F)C(=O)NCC(c1ccco1)N(C)C (stereo not drawn),inactive: 5.71%
3,CCOc1ccccc1CN1C(=O)NC2(CCCCCC2)C1=O,inactive: 15.8%
4,C=CCNC(=S)Nc1cc(Cl)ccc1OC,inactive: -11.2%
5,COc1ccc(CN(C)Cc2cc(=O)oc3cc(C)c(C(C)C)cc23)cc1OC,inactive: -7.85%
6,O=[N+]([O-])c1ccc(O)c2cccnc12,inactive: 21.7%
7,COc1ccc(CN(C)C(=O)/C=C/c2ccc(S(=O)(=O)N3CCOCC3)cc2)cc1F,inactive: 17%
8,CCC(Sc1nnc(-c2ccco2)n1C)C(=O)Nc1nnc(C)s1 (stereo not drawn),inactive: 10.5%
9,CC(=O)NC(CC(=O)O)c1ccc([N+](=O)[O-])cc1 (stereo not drawn),inactive: -9.76%
10,C=CCc1c(N(CC)CC)nc(C)[nH]c1=O,inactive: 24.1%
11,COc1cc(OC)c(OC)cc1CN1CCN(Cc2ccc(SC)cc2)CC1,inactive: -18%
12,CSc1ccccc1NC(=O)COC(=O)CCC(=O)c1ccc(F)cc1,inactive: -19.2%
13,Cc1ccc(C)n1C(CC(=O)O)c1ccc(C#N)cc1 (stereo not drawn),inactive: -19.3%
14,CC1CCC2(CC1)NC(=O)N(Cc1nc(-c3ccccc3)no1)C2=O (stereo not drawn),inactive: 24.2%
15,Cc1cc(C)n2c(nc3ccccc32)c1C(=O)NN,inactive: 1.38%
16,Cc1cc(C)c(NC(=O)CS(=O)CC(=O)NCCN2CCCCCC2)c(C)c1 (stereo not drawn),inactive: -11.6%
17,O=c1[nH]n2cc(-n3cc([N+](=O)[O-])cn3)cnc2c1Br,inactive: -0.0047%
18,O=c1c2cc(N3CCOCC3)ccc2[nH]c(=S)n1Cc1ccccc1Cl,inactive: 7.87%
19,Cc1ccc(S(=O)(=O)N2CCCC(C(=O)NCCc3ccccc3)C2)cc1 (stereo not drawn),inactive: -5.41%
20,CC1(C(=O)NS(=O)(=O)c2cccc(Cl)c2)CCN1C(=O)Cc1ccc(Cl)cc1Cl (stereo not drawn),inactive: 0.515%
21,COCCNC(=O)C(c1ccc(C)cc1)N(CCOC)C(=O)CCC(=O)Nc1nccs1 (stereo not drawn),inactive: 16%
22,O=C(Nc1ccc(Br)cc1)c1ccc(-n2cnnn2)cc1,inactive: 9.13%
